# Laboratory results taken from the supplement of paper PMC8285479.
# Where a name gives a salt, the structure may show the parent alone. ± gives the standard deviation of the averaged measurements. The full ranking holds about 1,900 compounds; the median of “normalised cell viability (NPI; 0 = phenylarsine oxide control, 1 = DMSO control)” is about 1, and the lowest 2% start at about 0.039. The list shows a part of the results.
# System: NCI-H1944
# Assay: normalised cell viability (NPI; 0 = phenylarsine oxide control, 1 = DMSO control) (fraction of DMSO control); NCI-H1944 is a non-small cell lung cancer line; higher = more viable cells (less compound toxicity)
# Conditions: 6 days
# [1] = glucocorticoid arm: hydrocortisone 2.75 uM co-treatment, compound 1 µM
# [2] = glucocorticoid arm: hydrocortisone 2.75 uM co-treatment, compound 5 µM
# [3] = glucocorticoid arm: hydrocortisone 2.75 uM pre-treated 2 days and continued, compound 1 µM
# [4] = glucocorticoid arm: hydrocortisone 2.75 uM pre-treated 2 days and continued, compound 5 µM
# [5] = glucocorticoid arm: vehicle, compound 1 µM
# [6] = glucocorticoid arm: vehicle, compound 5 µM
# 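Further: CTB read-out in 384-well plates, mean of triplicate wells, normalised per plate against 1 µM phenylarsine oxide and 0.1% DMSO, compounds added 24 h after seeding.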
Compound,normalised cell viability [1],normalised cell viability [2],normalised cell viability [3],normalised cell viability [4],normalised cell viability [5],normalised cell viability [6]
CCN1CCC[C@H]1CNC(=O)c1cc(S(N)(=O)=O)ccc1OC [Levosulpiride],1.01 ± 0.013,0.9997 ± 0.0093,1.02 ± 0.011,0.998 ± 0.011,0.994 ± 0.014,1.004 ± 0.0098
CCN1CCC[C@H]1CNC(=O)c1cc(S(N)(=O)=O)ccc1OC [(S)-(-)-Sulpiride],1.01 ± 0.01,1.01 ± 0.015,0.884 ± 0.23,1.01 ± 0.01,1.023 ± 0.0058,1.027 ± 0.0058
N[C@@H](CCC(=O)N[C@@H](CSN=O)C(=O)NCC(=O)O)C(=O)O [S-Nitrosoglutathione],1.003 ± 0.0058,1.02 ± 0.025,1.02,1.04 ± 0.064,0.9933 ± 0.0035,1 ± 0.014
CCCNS(=O)(=O)Nc1ncnc(OCCOc2ncc(Br)cn2)c1-c1ccc(Br)cc1 [Macitentan],1.04 ± 0.01,1.02 ± 0.015,1.023 ± 0.0058,1.03 ± 0.017,1.007 ± 0.0058,1.002 ± 0.0068
CC(CCc1ccc(O)cc1)NCCc1ccc(O)c(O)c1 (stereo not given) [Dobutamine hydrochloride],1.013 ± 0.0058,0.99 ± 0.02,1.002 ± 0.0072,0.983 ± 0.008,1.002 ± 0.0072,1 ± 0.01
CCCCC#Cc1nc(N)c2ncn([C@@H]3O[C@H](C(=O)NCC)[C@@H](O)[C@H]3O)c2n1,1.01 ± 0.015,0.979 ± 0.011,1.007 ± 0.0058,1.01 ± 0.014,1.01,1.003 ± 0.0058
CC1=NN(c2ccc(C(=O)O)cc2)C(=O)C1=Cc1ccc(-c2cc(C)c(C)cc2[N+](=O)[O-])o1,0.973 ± 0.023,1.043 ± 0.0058,0.9843 ± 0.007,1.02 ± 0.015,1.001 ± 0.0081,0.995 ± 0.013
CC(C)(C)C#Cc1cc(N(C(=O)[C@H]2CC[C@H](C)CC2)[C@H]2CC[C@H](O)CC2)c(C(=O)O)s1,1.01 ± 0.015,1.03,1.02 ± 0.018,1.04 ± 0.01,1.01,1.017 ± 0.0058
COc1ccc(-c2cc3c(C)nc(N)nc3n([C@H]3CC[C@H](OCCO)CC3)c2=O)cn1,0.483 ± 0.014,0.231 ± 0.031,0.483 ± 0.024,0.307 ± 0.019,0.419 ± 0.012,0.0512 ± 0.027
O=c1[nH]c(=O)n([C@H]2C[C@H](O)[C@@H](CO)O2)cc1/C=C/Br [(E)-5-(2-Bromovinyl)-2'-deoxyuridine],1.013 ± 0.0058,1.01 ± 0.01,1.003 ± 0.0061,1.015 ± 0.0071,0.9783 ± 0.0055,0.9897 ± 0.0049
Cn1c(=O)c(F)c(Nc2ccc(I)cc2F)c2c(=O)n(C[C@@H](O)CO)cnc21,0.641 ± 0.035,0.629 ± 0.043,0.772 ± 0.028,0.757 ± 0.042,0.329 ± 0.013,0.226 ± 0.025
NC(=O)c1cccnc1 [Nicotinamide],1.01 ± 0.014,1.02 ± 0.012,1.01 ± 0.018,1.01 ± 0.018,1.006 ± 0.0085,1.013 ± 0.0082
NCc1c[nH]c(=S)n1[C@H]1CCc2c(F)cc(F)cc2C1 [Nepicastat (SYN-117) HCl],0.9937 ± 0.006,1,1.01 ± 0.022,0.98 ± 0.017,0.9937 ± 0.0085,0.9913 ± 0.0051
CNC1(C)C2CCC(C2)C1(C)C (stereo not given) [Mecamylamine hydrochloride],1.017 ± 0.0058,1.02 ± 0.026,1.017 ± 0.0058,1.07 ± 0.072,1.02,1.06 ± 0.046
Cc1c(Cn2c(C)nc3c(C(=O)O)cc(N4CCOCC4)cc32)cccc1C(F)(F)F,0.897 ± 0.019,0.803 ± 0.036,0.892 ± 0.0085,0.874 ± 0.018,0.972 ± 0.018,0.943 ± 0.013
Nc1nc(Nc2ccc(S(N)(=O)=O)cc2)nn1C(=O)c1c(F)cccc1F,0.953 ± 0.018,0.284 ± 0.052,1 ± 0.038,0.769 ± 0.061,0.791 ± 0.026,0.042 ± 0.0075
Cc1[nH]c(/C=C2\C(=O)Nc3ccc(S(=O)(=O)Cc4c(Cl)cccc4Cl)cc32)c(C)c1C(=O)N1CCC[C@@H]1CN1CCCC1,1.04,1.07 ± 0.015,1.033 ± 0.0058,1.063 ± 0.0058,1.002 ± 0.0068,0.993 ± 0.0061
N#CC(=C(/N)Sc1ccccc1N)/C(C#N)=C(\N)Sc1ccccc1N,1.02 ± 0.011,1.08 ± 0.025,0.976 ± 0.016,1.01 ± 0.027,1.023 ± 0.0058,1.02 ± 0.015
CC(C)(Oc1ccc(C2CC2(Cl)Cl)cc1)C(=O)O (stereo not given) [Ciprofibrate],0.9977 ± 0.0025,1.03 ± 0.011,1.001 ± 0.0082,1.03,0.992 ± 0.0072,0.992 ± 0.011
c1ccc2c(-c3cnn4cc(-c5ccc(N6CCNCC6)cc5)cnc34)ccnc2c1,1.043 ± 0.0058,0.832 ± 0.14,1.04 ± 0.01,1.09 ± 0.021,1.01 ± 0.011,0.0214 ± 0.0048
CC(=O)NCCc1ccc(O)c(O)c1 [N-Acetyldopamine monohydrate],0.999 ± 0.011,0.998 ± 0.011,0.988 ± 0.011,0.988 ± 0.017,0.984 ± 0.015,0.979 ± 0.0056
N[C@@H](Cc1ccc(F)cc1)C(=O)O [p-Fluoro-L-phenylalanine],1 ± 0.015,1.01 ± 0.01,1.006 ± 0.0075,1.007 ± 0.0058,1 ± 0.0092,0.9973 ± 0.0046
Nc1nccc2c1ncn2[C@@H]1O[C@H](CO)[C@@H](O)[C@H]1O [3-deazaadenosine],0.989 ± 0.0099,0.973 ± 0.025,0.996 ± 0.012,0.981 ± 0.011,0.9687 ± 0.0035,0.968 ± 0.0062
CC[C@]1(O)C[C@@H]2CN(CCc3c([nH]c4ccccc34)[C@@](C(=O)OC)(c3cc4c(cc3OC)N(C)[C@H]3[C@@](O)(C(=O)OC)[C@H](OC(C)=O)[C@]5(CC)C=CCN6CC[C@]43[C@@H]65)C2)C1 [Vinblastine sulfate salt],0.361 ± 0.02,0.337 ± 0.021,0.795 ± 0.17,0.94 ± 0.023,0.0757 ± 0.0017,0.0495 ± 0.005
CC[C@]1(O)C[C@@H]2CN(CCc3c([nH]c4ccccc34)[C@@](C(=O)OC)(c3cc4c(cc3OC)N(C)[C@H]3[C@@](O)(C(=O)OC)[C@H](OC(C)=O)[C@]5(CC)C=CCN6CC[C@]43[C@@H]65)C2)C1 [Vinblastine sulfate salt; Vinblastine sulfate],0.354 ± 0.019,1.023 ± 0.0058,0.621 ± 0.029,1.03 ± 0.027,0.0439 ± 0.00099,1.017 ± 0.0058
